Results reported in article PMC4336329 (PLoS ONE, 2015).
About 14,000 (4.5%) of roughly 310,000 compounds showed an effect of 50% or more. Effects have a minus sign here. The list shows a part of the results.

Biological target: human ether-à-go-go-related gene (hERG) potassium channel (human, UniProt Q12809)
Assay: primary screen, population patch clamp on CHO cells stably expressing hERG
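Note: peak tail current of the secondary pulse compared with the same well before compound.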

Sequence of human ether-à-go-go-related gene (hERG) potassium channel (Q12809 whole entry, looked up): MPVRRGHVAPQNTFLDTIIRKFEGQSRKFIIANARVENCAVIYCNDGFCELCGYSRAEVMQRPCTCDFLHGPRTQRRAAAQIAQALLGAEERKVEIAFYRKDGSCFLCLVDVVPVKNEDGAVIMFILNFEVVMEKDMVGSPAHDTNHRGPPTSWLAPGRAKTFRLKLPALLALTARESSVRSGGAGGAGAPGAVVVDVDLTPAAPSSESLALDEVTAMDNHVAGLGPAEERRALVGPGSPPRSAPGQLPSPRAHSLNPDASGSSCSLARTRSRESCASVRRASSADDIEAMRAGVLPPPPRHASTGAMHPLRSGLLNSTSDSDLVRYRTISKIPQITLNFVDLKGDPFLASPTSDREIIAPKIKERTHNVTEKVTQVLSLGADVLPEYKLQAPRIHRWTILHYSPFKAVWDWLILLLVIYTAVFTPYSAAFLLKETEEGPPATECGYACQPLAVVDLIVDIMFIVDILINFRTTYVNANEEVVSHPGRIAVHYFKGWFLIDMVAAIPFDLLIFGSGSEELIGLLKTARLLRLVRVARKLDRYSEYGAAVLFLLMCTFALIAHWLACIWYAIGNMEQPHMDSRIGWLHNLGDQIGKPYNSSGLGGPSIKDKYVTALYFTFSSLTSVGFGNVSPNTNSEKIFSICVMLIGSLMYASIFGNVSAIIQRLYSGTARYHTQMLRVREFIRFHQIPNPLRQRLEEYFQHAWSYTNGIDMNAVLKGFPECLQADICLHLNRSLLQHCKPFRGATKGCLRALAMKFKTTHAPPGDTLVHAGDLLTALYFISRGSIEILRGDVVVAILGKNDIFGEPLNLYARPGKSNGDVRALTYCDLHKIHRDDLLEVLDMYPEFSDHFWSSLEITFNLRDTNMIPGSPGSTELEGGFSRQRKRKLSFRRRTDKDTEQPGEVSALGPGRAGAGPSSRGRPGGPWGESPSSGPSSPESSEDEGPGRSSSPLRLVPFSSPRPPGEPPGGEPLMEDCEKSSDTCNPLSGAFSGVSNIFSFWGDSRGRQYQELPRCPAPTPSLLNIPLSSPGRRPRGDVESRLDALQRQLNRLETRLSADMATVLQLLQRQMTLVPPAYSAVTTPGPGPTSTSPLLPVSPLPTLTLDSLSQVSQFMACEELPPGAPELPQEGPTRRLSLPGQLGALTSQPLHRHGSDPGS

| Compound | hERG current change (%, negative = inhibition) at 10uM [%] |
| --- | --- |
| CN(C)c1ccc(/C=N/NC(=O)C(=O)N2CCCCCC2)cc1 | 18 |
| Cc1cc(NC(=O)Nc2cccc([N+](=O)[O-])c2)no1 | 10.6 |
| CN(C[C@H](Cc1ccccc1)N(C[C@H](Cc1ccccc1)N(CC1(c2ccccc2)CC1)N=O)N=O)N=O.[Na+] | 12.8 |
| O=C(O)C(=O)O.O=C(c1cccc(F)c1)N1CCN(Cc2cccc(Br)c2)CC1 | -48.6 |
| Cc1ccc(-n2c(CNCc3ccc(F)cc3)nc3ccccc3c2=O)cc1 | -25.9 |
| COCCOC(=O)c1c(C)oc2cc(Br)c(OCC(N)=O)cc12 | 10.6 |
| CCOc1ccc2nc(NC(=O)CSc3nc4c(c(=O)n(C)c(=O)n4C)n3C(C)C)sc2c1 | -9.49 |
| Cc1ccc(-c2csc3ncn(CC(=O)N4CCOCC4)c(=O)c23)cc1C | -5.43 |
| COC(=O)c1ccc(NC(=O)CN2CCOCC2)cc1 | 11.7 |
| Cc1cc(C)c(S(=O)(=O)c2ccccc2F)c(=O)[nH]1 | 30.6 |
| CSc1ncccc1C(=O)OCc1ccccc1Cl | 17 |
| COc1ccc(CNC(=O)c2c(-c3c(F)cccc3Cl)noc2C)cc1 | -0.124 |
| CCC(=O)N1CCc2cc(Br)cc(S(=O)(=O)CCC(=O)NCCc3ccccc3)c21 | 3.68 |
| Cc1nn(-c2ccccc2)c(Cl)c1/C=N/NC(=O)CNC(=O)c1ccccc1Cl | -29.2 |
| COc1cc(C2=NOC(C(=O)Nc3ccc(C)cc3)C2)cc(OC)c1OC (stereo not shown) | -4.96 |
| COCCNc1oc(-c2ccc(F)cc2)nc1C#N | 4.03 |
| COC(=O)c1cc(CN2CCN(c3ccccc3)CC2)ccc1O.Cl | -13.1 |
| CCCC(=O)Nc1c2c(nn1-c1ccc(C)cc1C)CSC2 | -14.5 |
| O=C(CN1CCCC1)Nc1sc2c(c1C(=O)Nc1ccc(Br)cc1)CCC2 | -1.29 |
| O=c1c2ccccc2nc2n1CCN2 | 8.54 |
| O=C(CCN1CCN(C(=O)c2ccco2)CC1)Nc1ccc(F)cc1 | -22.4 |
| Cc1ccc(NC(=O)c2cn(-c3cccc(C)n3)cn2)cc1 | 2.19 |

| Compound | hERG current change (%, negative = inhibition) at 10uM [%] |
| --- | --- |
| CCCCn1c(N)c(Sc2ccccc2[N+](=O)[O-])c(=O)[nH]c1=O | 10.7 |
| O=C(CSc1nnnn1-c1ccccc1)N1CCCc2ccccc21 | -6.72 |
| CCOCCn1c(CN2CCN(c3ccc(OC)cc3)CC2)nc2c1c(=O)n(C)c(=O)n2C | -41.2 |
| O=C(CC1CCCCC1)Nc1c2c(nn1-c1ccc(F)cc1)CS(=O)(=O)C2 | -14.3 |
| Cc1ccc(C)c(NC(=O)Cn2c(=O)n(-c3ccc(CC(=O)NCC4CCCO4)cc3)c(=O)c3ccccc32)c1 (stereo not shown) | 15.5 |
| COc1ccc(N2CCN(C(=O)c3ccc(N4C(=O)NC5CC4(C)Oc4ccccc45)cc3)CC2)cc1 (stereo not shown) | -6.29 |
| CCC(NC(=O)Cc1c(C)c2cc3c(cc2oc1=O)OC(C)(C)CC3)C(=O)O (stereo not shown) | 21.2 |
| O=C(NNS(=O)(=O)Cc1ccccc1)c1ccc([N+](=O)[O-])cc1 | -17 |
| CCc1ccc(C2C(C#N)=C(N)SC(N)=C2C#N)cc1 | 9.3 |
| CCN1CCN(S(=O)(=O)c2ccc(C(=O)Nc3sc4c(c3C(N)=O)CCN(CC)C4)cc2)CC1 | 12.4 |
| O=C(CN1CCN(c2ccccn2)CC1)N(c1ccccc1)c1ccc2ccccc2c1 | -49.2 |
| COc1ccc(N2C(=O)NC(=O)/C(=C/c3ccc(N4CCOCC4)cc3)C2=O)cc1 | 0.773 |
| O=Cc1c(N2CCCCCC2)nc2ccccn2c1=O | 1.82 |
| CCCCN(C(=O)Cc1cccc(F)c1)c1c(N)n(CCC)c(=O)[nH]c1=O | 7.66 |
| Cn1ccnc1Sc1ccc(C(N)=O)cc1[N+](=O)[O-] | 12.9 |
| O=[N+]([O-])c1cccc(S(=O)(=O)N/N=C/c2ccc(O)cc2)c1 | 1.14 |
| COCCCNS(=O)(=O)c1cc2c3c(c1)C(C)C(=O)N3CCC2 (stereo not shown) | 16.4 |
| CN(C)CCN(C(=O)c1ccc(S(=O)(=O)N(C)c2ccccc2)cc1)c1nc2cc3c(cc2s1)OCCO3.Cl | -1.95 |
| COCCNC(=O)CN(c1cc(C(F)(F)F)ccc1Cl)S(C)(=O)=O | 6.08 |
| O=c1cc(-c2ccc(F)cc2)oc2ccccc12 | -7.04 |
| O=[N+]([O-])c1ccc(-[n+]2c(-c3ccccc3)cc(-c3ccccc3)cc2-c2ccccc2)cc1.[O-][Cl+3]([O-])([O-])[O-] | 4.73 |
| O=c1cc(O)n(-c2ccc(Cl)cc2)c(=S)[nH]1 | 6.26 |

| Compound | hERG current change (%, negative = inhibition) at 10uM [%] |
| --- | --- |
| CCOc1ccc(S(=O)(=O)NCc2ccccn2)c(C)c1C | 6.62 |
| Cc1ccc(S(=O)(=O)NNC(=O)c2sc(NS(=O)(=O)c3ccccc3)nc2C)cc1 | 9.48 |
| Cc1ccc(C(=O)Nn2cnc3ccccc3c2=O)cc1C | -4.89 |
| O=C(NC(=S)NC1CCSC1=O)c1ccccc1F (stereo not shown) | 9.75 |
| O=C(COc1coc(CN2CCCc3ccccc32)cc1=O)Nc1ccccc1 | -28.2 |
| CCN1CCSc2ccc(C(=O)NCc3cccc(Br)c3)cc21 | -0.0439 |
| O=C(NC(=S)Nc1ccc(S(=O)(=O)Nc2nccs2)cc1)c1cccc(F)c1 | 0.753 |
| CC(OC(=O)c1cccc(-n2cnnn2)c1)C(=O)c1ccccc1 (stereo not shown) | -17 |
| Cc1cc(Br)cc(C)c1OCC(=O)NNC(=O)CCC(=O)NCc1ccccc1 | 13 |
| Cn1c(CCN2CCOCC2)nc2cc(NC(=O)COc3ccc([N+](=O)[O-])cc3)ccc21 | -21.1 |
| COc1ccc(C)cc1NC(=O)CCN1CC(C)OC(C)C1.Cl (stereo not shown) | 15 |
| CC(Cc1ccccc1)NC(=O)c1cc([N+](=O)[O-])ccc1Cl (stereo not shown) | -4.69 |
| CCS(=O)(=O)Nc1c(C(=O)O)[nH]c2ccccc12 | -7.59 |
| COc1ccc(OC)c(/C(O)=C/C(=O)C(=O)Nc2cc(C)ccc2OC)c1 | 13 |
| COc1ccc(S(=O)(=O)N2CCCCCC2)cc1C(=O)N(CC(C)C)C1CCS(=O)(=O)C1 (stereo not shown) | -20.9 |
| CCCN(CCC)S(=O)(=O)c1cccc(C(=O)N=c2sccn2C)c1 | 15.2 |
| Cc1ccc(S(=O)(=O)N2CCC(C(=O)NNC(=O)c3ccccc3O)CC2)cc1 | -3.99 |
| COc1ccccc1NC(=O)COC(=O)c1ccc(N2CCCC2=O)cc1 | -3.12 |
| Cc1ccc(-n2c(SCC(N)=O)nc3c(oc4ccccc43)c2=O)cc1 | 14.7 |
| O=C(CCc1nc2ccccc2[nH]1)N1CCN(C(=O)c2ccco2)CC1 | 6.93 |
| CSC(=Nc1ccccc1)C1=C(O)COC1=O | 12 |
| CC(NC(=O)c1ccccc1F)c1nnc(SCC(=O)Nc2nnc(C3CC3)s2)n1C (stereo not shown) | 16.2 |

| Compound | hERG current change (%, negative = inhibition) at 10uM [%] |
| --- | --- |
| COCC1CCCN(Cc2cn(-c3ccccc3F)nc2-c2cc(C)sc2C)C1 (stereo not shown) | -39.4 |
| CC(Sc1nnc(C2CC2)n1C1CC1)C(=O)N(C)C1(C#N)CCCCC1 (stereo not shown) | -17.4 |
| COc1ccccc1CNC(=O)[C@@H]1CCCN1C(=O)C1CCN(S(=O)(=O)c2ccc(C)cc2)CC1 | -10.2 |
| Cc1ccc(S(=O)(=O)N2CCCC(C(=O)NCC3COCCO3)C2)cc1 (stereo not shown) | -7.48 |
| Cc1ccc(C(=O)Nn2c(C)nc3ccccc3c2=O)cc1C | 23.2 |
| Cl.c1ccc(CCNCc2ccccc2)cc1 | -9.4 |
| Cc1ccc(OCCNC(=O)/C=C/c2ccccc2)cc1C | -8.32 |
| Cc1ccccc1N1C(=S)NC2c3ccccc3OC1(C)C2C(=O)N(C)C (stereo not shown) | -10.7 |
| C/C(=N\NC(=O)C(C)n1nc(C)c([N+](=O)[O-])c1C)c1ccccc1O (stereo not shown) | -12.1 |
| O=C1[C@H]2C(c3ccccc3)=NN(c3ccccc3)[C@H]2C(=O)N1c1ccccc1 | 12.3 |
| Cc1cc(O)c2c(CN3CCN(Cc4ccccc4)CC3)cc(=O)oc2c1 | -13.1 |
| CC(C)CC1Nc2ncnc(N3CCN(c4ccccc4)CC3)c2N(Cc2ccc(Br)cc2)C1=O.O=C(O)C(F)(F)F (stereo not shown) | -4.72 |
| Cn1c(C(=O)NCCN2CCOCC2)cc2c(=O)n(C)c3ccccc3c21 | -3.32 |
| COc1ccc(-n2c(COc3ccc(Cl)cc3)nnc2SCc2ccc(C#N)cc2)cc1 | 0.977 |
| CCCCn1c(NC(C)=O)c(C#N)c2nc3ccccc3nc21 | 14.1 |
| O=C(COC(=O)c1cc(=O)c2ccccc2o1)NC1CCCC1 | 16.8 |
| O=C1CC(c2ccc(F)cc2)CC2=C1C=Nc1ccccc1N2 (stereo not shown) | -72.8 |
| CSc1nc(N)nc(SCC(=O)CC(=O)OC(C)C)c1C#N | -11.5 |
| O=C(CCOc1ccccc1)N1CCN(c2ccc(O)cc2)CC1 | -34.4 |
